The results in this text go back to publication PMC4336329 (PLoS ONE, 2015).

Structures are written as SMILES. The campaign covered roughly 310,000 compounds. About 2,200 (0.71%) showed an effect of 50% or more. Effects have a minus sign here. The list shows a part of the results.

The target in this assay is human ether-à-go-go-related gene (hERG) potassium channel (human, UniProt Q12809). Nature of the assay: primary screen, population patch clamp on CHO cells stably expressing hERG.
Chain of human ether-à-go-go-related gene (hERG) potassium channel (Q12809 whole entry, looked up): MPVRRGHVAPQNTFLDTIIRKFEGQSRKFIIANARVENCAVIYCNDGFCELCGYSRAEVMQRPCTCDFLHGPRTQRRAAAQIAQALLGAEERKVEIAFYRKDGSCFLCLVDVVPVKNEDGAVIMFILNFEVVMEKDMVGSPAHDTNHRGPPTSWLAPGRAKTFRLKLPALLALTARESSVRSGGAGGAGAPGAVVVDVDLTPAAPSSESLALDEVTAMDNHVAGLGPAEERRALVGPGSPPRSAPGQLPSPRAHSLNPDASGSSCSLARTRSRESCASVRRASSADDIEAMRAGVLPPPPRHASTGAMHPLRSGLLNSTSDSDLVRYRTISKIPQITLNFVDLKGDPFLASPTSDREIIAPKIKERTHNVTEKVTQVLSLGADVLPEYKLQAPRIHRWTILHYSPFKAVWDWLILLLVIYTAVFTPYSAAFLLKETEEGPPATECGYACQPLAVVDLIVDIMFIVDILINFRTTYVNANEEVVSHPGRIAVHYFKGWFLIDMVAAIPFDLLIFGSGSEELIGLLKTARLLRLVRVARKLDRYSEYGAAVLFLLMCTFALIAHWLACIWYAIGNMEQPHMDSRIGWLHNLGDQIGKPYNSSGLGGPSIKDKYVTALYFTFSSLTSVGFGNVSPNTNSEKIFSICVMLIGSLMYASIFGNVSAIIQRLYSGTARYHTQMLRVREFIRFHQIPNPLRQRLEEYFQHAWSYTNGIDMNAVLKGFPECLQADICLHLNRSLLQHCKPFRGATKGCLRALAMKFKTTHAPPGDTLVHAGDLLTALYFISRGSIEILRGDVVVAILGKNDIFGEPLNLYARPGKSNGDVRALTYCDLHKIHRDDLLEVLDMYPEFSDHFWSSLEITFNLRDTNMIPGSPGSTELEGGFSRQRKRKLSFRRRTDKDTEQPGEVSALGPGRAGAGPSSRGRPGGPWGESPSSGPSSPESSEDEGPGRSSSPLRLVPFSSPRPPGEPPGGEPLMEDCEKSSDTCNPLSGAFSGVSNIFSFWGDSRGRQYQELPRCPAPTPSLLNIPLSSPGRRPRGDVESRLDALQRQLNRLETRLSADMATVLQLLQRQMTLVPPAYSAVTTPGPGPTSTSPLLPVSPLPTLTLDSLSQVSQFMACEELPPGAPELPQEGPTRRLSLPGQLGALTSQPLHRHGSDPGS
On to `CCOc1cc(/C=C/C(=O)O)ccc1OCCOc1ccc(F)cc1`, for which the “hERG current change (%, negative = inhibition) at 1uM” value is 6.66%.
On to `Fc1ccc(NC(=S)N2N=CCC2c2ccccc2)cc1` (stereo not drawn), for which the “hERG current change (%, negative = inhibition) at 1uM” value is reported as -19.7%.
Then `Cc1ccc(S(=O)(=O)N(C)C)cc1NC(=O)COC(=O)CSc1ccccc1`, with 16.9%.
For `COc1cccc(C(=O)Nc2ccc(C(=O)NCC(C)C)cc2)c1`, the “hERG current change (%, negative = inhibition) at 1uM” value turned out to be 14.1%.
With `CCC(c1nc2ccccc2c(=O)n1CCN1CCOCC1)N1C(=O)c2ccccc2C1=O` (stereo not drawn), the “hERG current change (%, negative = inhibition) at 1uM” value is listed as -3.14%.
The result for `CSc1ccc(/C=C(\NC(=O)c2ccco2)C(=O)N2CCCCC2)cc1` reads -1.75%; that for `COc1ccccc1-c1nnc(NC(=O)OCC(C)C)s1`, 10.2%; that for `COC(=O)c1ccccc1S(=O)(=O)N1CCC(C(=O)N(C)CCOc2ccccc2)CC1`, 22%.
On to `CCCc1nc2scc(-c3ccc(C)cc3)c2c(=O)n1N`, for which the “hERG current change (%, negative = inhibition) at 1uM” value was 14.9%.
Then `CCOCCOCN(C#N)c1nc(OC)nc(N(C)C)n1`, with 9.67%; and `COc1ccc(O)c(C(=O)c2cc(C(=O)NCCc3ccccc3)c(=O)n(CCc3ccccc3)c2)c1`, with 6.92%; and `O=C(Nc1ccc(N2CCOCC2)cc1)c1ccc(Cl)cc1N1CCCC1=O`, with 3.25%.
With `O=C(N/C(=C\c1ccc(Br)cc1)C(=O)N1CCOCC1)c1ccccc1Cl`, the “hERG current change (%, negative = inhibition) at 1uM” value is reported as 2.42%.
Regarding `CCOC(=O)CN(C(=O)CNC(=O)c1ccco1)C(C(=O)NC1CCCCC1)c1cccc(OC)c1` (stereo not drawn), the “hERG current change (%, negative = inhibition) at 1uM” value came out at 13%.
As to `Cc1onc(-c2ccccc2)c1C(=O)N/N=C/c1cc2c(cc1Br)OCO2`, the “hERG current change (%, negative = inhibition) at 1uM” value is reported as 10.4%.
As to `CCN(CC(=O)NCc1cccs1)S(=O)(=O)c1c(F)cccc1F`, the “hERG current change (%, negative = inhibition) at 1uM” value was determined as 15.2%.
For the molecule `CCOc1ccc(N2CC(=O)N/C2=N\c2nc(C)cc(C)n2)cc1`, the “hERG current change (%, negative = inhibition) at 1uM” value is listed as -2.01%.
As for `CCc1ccc(C(=O)N2CCC(c3nc4ccccc4s3)CC2)cc1`, the “hERG current change (%, negative = inhibition) at 1uM” value is reported as -27.1%.
Consider `COC(=O)NNC(=S)Nc1ccc(Br)cc1`, for which the “hERG current change (%, negative = inhibition) at 1uM” value is on record as -2.32%.
Regarding `Cc1ccc2cc(CN(c3ccccc3)S(=O)(=O)c3ccccc3)c(=O)[nH]c2c1`, the “hERG current change (%, negative = inhibition) at 1uM” value was found to be 4.99%.
On to `Cc1cc(NC(=S)N(Cc2ccc(Cl)cc2)Cc2ccc(C(=O)O)cc2)ccc1Cl`, for which the “hERG current change (%, negative = inhibition) at 1uM” value turned out to be 5.9%.
Then `COc1ccc2c(c1OC)C(=O)NC(C)=C(C(=O)OC(C)(C)C)C2O` (stereo not drawn), with 12.4%; and `CC1=C(CC/C(C)=N/NC(N)=S)C(C)(C)CCC1`, with 1.1%; and `NC(=O)C1(S(=O)(=O)c2ccccc2)CCCCC1`, with 14.2%.
Take `Cc1noc(C)c1N=Nc1ccc(Br)cc1C(=O)O`: the “hERG current change (%, negative = inhibition) at 1uM” value is 13.3%.
`CCc1nnc(NC(=O)c2ccc(N(C)S(=O)(=O)c3ccccc3)cc2)s1`: the “hERG current change (%, negative = inhibition) at 1uM” value came to 2.11%.
On to `Cc1cc2c(c(=O)n1Cc1cccnc1)C(c1ccccc1)C(C#N)=C(N)O2` (stereo not drawn), for which the “hERG current change (%, negative = inhibition) at 1uM” value is 16.5%.
Then `CCOc1ccc(C(=O)NCCNC(=O)c2ccc(OCC)cc2)cc1`, with 15.9%; and `O=C(N/N=C/c1c[nH]c2ccccc12)c1cc(-c2ccccc2)n[nH]1`, with 2.02%; and `CCOC(=O)c1c(-c2ccccc2)oc2ccc(OCC(N)=O)cc12`, with 8.38%.
As for `Cc1ccc(O)c(-c2cc(C(=O)Nc3cccnc3)[nH]n2)c1`, the “hERG current change (%, negative = inhibition) at 1uM” value is listed as 11%.
Then `Cc1ccc(-n2c(SCC(=O)OC(C)C)nnc2-c2ccncc2)cc1`, with 0.506%; and `CCc1ccc(-c2nnn(CCC(=O)OC)n2)cc1`, with -4.21%.
Then `O=C(C1=C[C@H](c2ccc(C(F)(F)F)cc2)C[C@H](OCc2ccc(CO)cc2)O1)N1CCOCC1`, with 4.82%.
The result for `COc1ccc(C2(O)CCN(CC(=O)Nc3nc(-c4ccccc4)cs3)CC2)cc1` reads 4.82%; that for `Cc1nnc(NC(=O)c2ccc(-c3cccc(C(F)(F)F)c3)o2)s1`, 4.49%; that for `Br.COc1ccc(-c2nc(C)sc2C)cc1`, 7.72%.
In the case of `O=C(Nc1sc2c(c1-c1nc3ccccc3[nH]1)CCCC2)C1CCCC1`, the “hERG current change (%, negative = inhibition) at 1uM” value came to 5.15%.
Consider `COc1ccc(Nc2nc(NN)nc(Nc3ccc(OC)cc3)n2)cc1`, for which the “hERG current change (%, negative = inhibition) at 1uM” value worked out at 10.9%.
`COc1cc(C2C(C(=O)c3ccc(C)o3)=C(O)C(=O)N2c2cc(C)on2)ccc1O` (stereo not drawn): the “hERG current change (%, negative = inhibition) at 1uM” value was 13.5%.
Take `CCCCCCCCC1=NCCc2c1[nH]c1ccccc21.Cl`: the “hERG current change (%, negative = inhibition) at 1uM” value is -11.1%.
As for `CC1CCC(C(C)C)C(OCC(O)CN2CCOCC2)C1.Cl` (stereo not drawn), the “hERG current change (%, negative = inhibition) at 1uM” value amounted to 12.8%.
In the case of `O=C1c2ccccc2NC(c2ccc([N+](=O)[O-])cc2)N1O` (stereo not drawn), the “hERG current change (%, negative = inhibition) at 1uM” value is 11.1%.
Turning to `CCn1cc([C@@H]2C[C@H]3CN(Cc4cccc(Cl)c4)C(=O)[C@]34CCCN24)c(C)n1`, the “hERG current change (%, negative = inhibition) at 1uM” value is listed as -18.7%.
Turning to `CCOC(=O)c1ccc(NC(=O)Cn2nnc(-c3ccccc3F)n2)cc1`, the “hERG current change (%, negative = inhibition) at 1uM” value was determined as 12.2%.
